Data taken from paper PMC5951851.
No constants are given. Whether binding was seen depends on the method and setting. For some of these results: Binding seen in cells or lysates may run through a third protein. Some entries that bind do so weakly or less than the wild type. Sequences can lack the tags named with a protein.

Columns and labels:
[1] = molecular target: T1, GPA1 (luciferase complementation fusion) (Arabidopsis thaliana), P18064; assay: split reporter; luciferase complementation; Nluc and Cluc constructs co-expressed in N. benthamiana leaves by Agrobacterium; leaf disks after 2 days with 1 mM luciferin; with or without flg22, elf18 or chitin; details: remark: other sources report otherwise
T1 chain: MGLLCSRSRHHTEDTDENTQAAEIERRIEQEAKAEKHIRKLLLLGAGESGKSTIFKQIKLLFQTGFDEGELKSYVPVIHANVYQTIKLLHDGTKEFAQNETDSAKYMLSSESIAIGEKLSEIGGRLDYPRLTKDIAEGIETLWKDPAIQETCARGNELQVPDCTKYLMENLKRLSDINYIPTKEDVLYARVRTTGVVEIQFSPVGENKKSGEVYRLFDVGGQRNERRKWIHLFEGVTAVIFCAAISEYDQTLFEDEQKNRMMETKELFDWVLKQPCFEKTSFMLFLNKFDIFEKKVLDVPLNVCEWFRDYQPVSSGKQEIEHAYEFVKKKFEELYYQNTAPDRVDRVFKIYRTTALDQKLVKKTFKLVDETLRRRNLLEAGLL

[2] = molecular target: T2, XLG2 (luciferase complementation fusion) (Arabidopsis thaliana) (UniProt C6KIE6); assay: as above
T2 sequence: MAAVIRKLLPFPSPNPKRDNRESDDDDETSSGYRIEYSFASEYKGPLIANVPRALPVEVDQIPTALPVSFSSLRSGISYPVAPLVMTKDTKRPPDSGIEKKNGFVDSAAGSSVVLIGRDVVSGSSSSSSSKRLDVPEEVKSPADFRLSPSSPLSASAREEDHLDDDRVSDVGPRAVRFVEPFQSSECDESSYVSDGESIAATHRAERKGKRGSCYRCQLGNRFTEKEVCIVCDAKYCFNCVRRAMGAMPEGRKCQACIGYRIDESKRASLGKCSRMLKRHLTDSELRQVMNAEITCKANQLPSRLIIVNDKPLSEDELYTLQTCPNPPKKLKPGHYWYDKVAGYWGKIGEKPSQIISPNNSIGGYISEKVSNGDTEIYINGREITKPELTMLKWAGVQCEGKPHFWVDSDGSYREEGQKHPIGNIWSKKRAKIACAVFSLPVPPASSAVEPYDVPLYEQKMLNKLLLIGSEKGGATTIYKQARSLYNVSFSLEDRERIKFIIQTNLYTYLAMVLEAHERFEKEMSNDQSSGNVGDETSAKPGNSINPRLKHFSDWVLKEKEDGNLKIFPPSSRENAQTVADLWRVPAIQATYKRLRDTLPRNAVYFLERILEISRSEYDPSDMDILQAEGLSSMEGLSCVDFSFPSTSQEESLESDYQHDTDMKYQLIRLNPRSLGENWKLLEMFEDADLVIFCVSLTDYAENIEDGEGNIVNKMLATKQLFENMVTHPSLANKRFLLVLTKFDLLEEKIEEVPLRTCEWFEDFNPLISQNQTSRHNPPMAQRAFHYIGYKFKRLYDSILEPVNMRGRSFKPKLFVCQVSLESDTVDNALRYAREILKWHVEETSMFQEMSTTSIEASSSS

[3] = molecular target: RGS1 (luciferase complementation fusion) (Arabidopsis thaliana) (UniProt Q8H1F2); assay: as above
[4] = molecular target: T3, RGS1CT (recombinant, GST pull-down) (Arabidopsis thaliana) (UniProt Q8H1F2); assay: pull-down; GST pull-down; 5 μg GST- and HIS-tagged proteins with glutathione agarose beads in 25 mM Tris-HCl, 100 mM NaCl, 1 mM DTT, pH 7.5, 1 h at 4 °C; washed with 300 mM NaCl; anti-HIS immunoblot; both purified
T3 sequence: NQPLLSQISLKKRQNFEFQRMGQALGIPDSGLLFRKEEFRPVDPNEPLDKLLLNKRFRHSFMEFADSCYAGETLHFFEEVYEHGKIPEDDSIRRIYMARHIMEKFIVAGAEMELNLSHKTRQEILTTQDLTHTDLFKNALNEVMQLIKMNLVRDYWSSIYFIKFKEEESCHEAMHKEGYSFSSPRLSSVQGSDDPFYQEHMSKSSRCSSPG

[5] = molecular target: T4, GPA1-FLAG (Arabidopsis thaliana), P18064; assay: co-IP; Arabidopsis protoplasts (Col-0 or rgs1-2) transfected, with or without 1 μM flg22 for 5 min, with or without co-expressed RGS1 variants; extraction buffer 50 mM HEPES pH 7.5, 150 mM KCl, 10 mM EDTA, 0.5% Triton X-100, 1 mM DTT; anti-FLAG M2 agarose, eluted with 3×FLAG peptide; anti-HA and anti-FLAG immunoblots; details: remark: other sources report otherwise
T4 chain: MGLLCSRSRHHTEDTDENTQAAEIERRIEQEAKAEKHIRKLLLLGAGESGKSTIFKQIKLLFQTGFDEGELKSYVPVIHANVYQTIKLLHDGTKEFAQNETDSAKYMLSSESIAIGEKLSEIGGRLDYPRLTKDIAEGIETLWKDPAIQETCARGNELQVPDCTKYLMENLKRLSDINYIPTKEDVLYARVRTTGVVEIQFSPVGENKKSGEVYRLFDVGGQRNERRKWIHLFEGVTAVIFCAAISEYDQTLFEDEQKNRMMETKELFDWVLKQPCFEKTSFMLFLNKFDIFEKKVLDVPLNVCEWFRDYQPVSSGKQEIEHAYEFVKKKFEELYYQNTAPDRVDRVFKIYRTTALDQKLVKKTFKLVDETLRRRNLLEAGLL

[6] = molecular target: T5, GPA1-FLAG (Arabidopsis thaliana) (UniProt P18064); assay: co-IP; rgs1-2 mutant protoplasts without RGS1 transfected; anti-FLAG IP
T5 sequence: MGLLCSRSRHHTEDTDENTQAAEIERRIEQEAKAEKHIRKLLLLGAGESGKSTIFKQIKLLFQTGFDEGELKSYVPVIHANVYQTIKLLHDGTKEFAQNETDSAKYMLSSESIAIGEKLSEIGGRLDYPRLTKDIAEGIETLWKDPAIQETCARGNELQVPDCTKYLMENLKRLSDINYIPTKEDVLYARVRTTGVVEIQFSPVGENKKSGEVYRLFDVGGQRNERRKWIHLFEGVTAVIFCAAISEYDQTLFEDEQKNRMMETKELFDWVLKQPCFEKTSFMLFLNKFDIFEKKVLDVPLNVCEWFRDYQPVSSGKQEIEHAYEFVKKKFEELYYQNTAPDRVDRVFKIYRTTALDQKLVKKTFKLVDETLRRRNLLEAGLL

B1: AGB1 (luciferase complementation fusion), P49177 1-377 (protein)
chain: MSVSELKERHAVATETVNNLRDQLRQRRLQLLDTDVARYSAAQGRTRVSFGATDLVCCRTLQGHTGKVYSLDWTPERNRIVSASQDGRLIVWNALTSQKTHAIKLPCAWVMTCAFSPNGQSVACGGLDSVCSIFSLSSTADKDGTVPVSRMLTGHRGYVSCCQYVPNEDAHLITSSGDQTCILWDVTTGLKTSVFGGEFQSGHTADVLSVSISGSNPNWFISGSCDSTARLWDTRAASRAVRTFHGHEGDVNTVKFFPDGYRFGTGSDDGTCRLYDIRTGHQLQVYQPHGDGENGPVTSIAFSVSGRLLFAGYASNNTCYVWDTLLGEVVLDLGLQQDSHRNRISCLGLSADGSALCTGSWDSNLKIWAFGGHRRVI
[1]
  binding: binds

B2: AGB1 (luciferase complementation fusion) (protein, UniProt P49177 1-377)
chain: MSVSELKERHAVATETVNNLRDQLRQRRLQLLDTDVARYSAAQGRTRVSFGATDLVCCRTLQGHTGKVYSLDWTPERNRIVSASQDGRLIVWNALTSQKTHAIKLPCAWVMTCAFSPNGQSVACGGLDSVCSIFSLSSTADKDGTVPVSRMLTGHRGYVSCCQYVPNEDAHLITSSGDQTCILWDVTTGLKTSVFGGEFQSGHTADVLSVSISGSNPNWFISGSCDSTARLWDTRAASRAVRTFHGHEGDVNTVKFFPDGYRFGTGSDDGTCRLYDIRTGHQLQVYQPHGDGENGPVTSIAFSVSGRLLFAGYASNNTCYVWDTLLGEVVLDLGLQQDSHRNRISCLGLSADGSALCTGSWDSNLKIWAFGGHRRVI
[2]
  binding: binds

B3: LYK5 (luciferase complementation fusion) (receptor, UniProt O22808 27-664)
chain: QQPYVNNHQLACEVRVYDNITNGFTCNGPPSCRSYLTFWSQPPYNTADSIAKLLNVSAAEIQSINNLPTATTRIPTRELVVIPANCSCSSSSGGFYQHNATYNLSGNRGDETYFSVANDTYQALSTCQAMMSQNRYGERQLTPGLNLLVPLRCACPTAKQTTAGFKYLLTYLVAMGDSISGIAEMFNSTSAAITEGNELTSDNIFFFTPVLVPLTTEPTKIVISPSPPPPPVVATPPQTPVDPPGSSSSHKWIYIGIGIGAGLLLLLSILALCFYKRRSKKKSLPSSLPEENKLFDSSTKQSIPTTTTTQWSIDLSNSSEAFGLKSAIESLTLYRFNDLQSATSNFSDENRIKGSVYRATINGDDAAVKVIKGDVSSSEINLLKKLNHSNIIRLSGFCIREGTSYLVFEYSENGSISDWLHSSGKKSLTWKQRVEIARDVAEALDYLHNYITPPHIHKNLESTNILLDSNFRAKIANFGVARILDEGDLDLQLTRHVEGTQGYLAPEYVENGVITSKLDVFAFGVAVLELLSGREAVTIHKKKEGEEEVEMLCKVINSVLGGENVREKLKEFMDPSLGNEYPLELAYTMAQLAKSCVATDLNSRPSVTQVLTTLSMIVSSSIDWEPSDDLLRSGSLGN
[3]
  binding: binds

B4: LYK5 kinase domain (LYK5KD) (domain or fragment, UniProt O22808 351-643)
chain: KSAIESLTLYRFNDLQSATSNFSDENRIKGSVYRATINGDDAAVKVIKGDVSSSEINLLKKLNHSNIIRLSGFCIREGTSYLVFEYSENGSISDWLHSSGKKSLTWKQRVEIARDVAEALDYLHNYITPPHIHKNLESTNILLDSNFRAKIANFGVARILDEGDLDLQLTRHVEGTQGYLAPEYVENGVITSKLDVFAFGVAVLELLSGREAVTIHKKKEGEEEVEMLCKVINSVLGGENVREKLKEFMDPSLGNEYPLELAYTMAQLAKSCVATDLNSRPSVTQVLTTLSMI
[4]
  binding: binds

B5: AGB1-HA, P49177 1-377 (protein)
chain: MSVSELKERHAVATETVNNLRDQLRQRRLQLLDTDVARYSAAQGRTRVSFGATDLVCCRTLQGHTGKVYSLDWTPERNRIVSASQDGRLIVWNALTSQKTHAIKLPCAWVMTCAFSPNGQSVACGGLDSVCSIFSLSSTADKDGTVPVSRMLTGHRGYVSCCQYVPNEDAHLITSSGDQTCILWDVTTGLKTSVFGGEFQSGHTADVLSVSISGSNPNWFISGSCDSTARLWDTRAASRAVRTFHGHEGDVNTVKFFPDGYRFGTGSDDGTCRLYDIRTGHQLQVYQPHGDGENGPVTSIAFSVSGRLLFAGYASNNTCYVWDTLLGEVVLDLGLQQDSHRNRISCLGLSADGSALCTGSWDSNLKIWAFGGHRRVI
[5]
  binding: binds

B6: AGB1-HA (protein, UniProt P49177 1-377)
chain: MSVSELKERHAVATETVNNLRDQLRQRRLQLLDTDVARYSAAQGRTRVSFGATDLVCCRTLQGHTGKVYSLDWTPERNRIVSASQDGRLIVWNALTSQKTHAIKLPCAWVMTCAFSPNGQSVACGGLDSVCSIFSLSSTADKDGTVPVSRMLTGHRGYVSCCQYVPNEDAHLITSSGDQTCILWDVTTGLKTSVFGGEFQSGHTADVLSVSISGSNPNWFISGSCDSTARLWDTRAASRAVRTFHGHEGDVNTVKFFPDGYRFGTGSDDGTCRLYDIRTGHQLQVYQPHGDGENGPVTSIAFSVSGRLLFAGYASNNTCYVWDTLLGEVVLDLGLQQDSHRNRISCLGLSADGSALCTGSWDSNLKIWAFGGHRRVI
[6]
  binding: binds weakly

B7: CERK1 (luciferase complementation fusion) (receptor, UniProt A8R7E6 24-617)
chain: KCRTSCPLALASYYLENGTTLSVINQNLNSSIAPYDQINFDPILRYNSNIKDKDRIQMGSRVLVPFPCECQPGDFLGHNFSYSVRQEDTYERVAISNYANLTTMESLQARNPFPATNIPLSATLNVLVNCSCGDESVSKDFGLFVTYPLRPEDSLSSIARSSGVSADILQRYNPGVNFNSGNGIVYVPGRDPNGAFPPFKSSKQDGVGAGVIAGIVIGVIVALLLILFIVYYAYRKNKSKGDSFSSSIPLSTKADHASSTSLQSGGLGGAGVSPGIAAISVDKSVEFSLEELAKATDNFNLSFKIGQGGFGAVYYAELRGEKAAIKKMDMEASKQFLAELKVLTRVHHVNLVRLIGYCVEGSLFLVYEYVENGNLGQHLHGSGREPLPWTKRVQIALDSARGLEYIHEHTVPVYVHRDIKSANILIDQKFRAKVADFGLTKLTEVGGSATRGAMGTFGYMAPETVYGEVSAKVDVYAFGVVLYELISAKGAVVKMTEAVGEFRGLVGVFEESFKETDKEEALRKIIDPRLGDSYPFDSVYKMAELGKACTQENAQLRPSMRYIVVALSTLFSSTGNWDVGNFQNEDLVSLMSGR
[3]
  binding: no binding
